Experimental data taken from PubChem BioAssay AID1963576 (National Center for Advancing Translational Sciences (NCATS), 2024).
The campaign covered roughly 46,000 compounds. About 60 (0.1%) were called active. Inconclusive results (about 3%) are left out. Calls follow the shape of the dose curve; as a rule, active = well fitted inhibition curve with a large enough effect; inconclusive = small, poorly fitted or top-dose-only effect; inactive = no such curve, though single readings can be large or run the other way. The list shows a part of the results.

assay: Primary qHTS assay for Inhibitors of ovarian cancer metastasis using an organotypic tumor microenvironment (TME) model.; also: nearly all actives have a fitted effect of over 65% in size;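 as to activity change, negative = inhibition: plate controls were DMSO wells for no effect and tomatine positive control wells for full effect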; settings: SKOV3ip1-GFP adhesion/invasion on 3D omental model, fluorescence; series mostly up to 45.8 µM; activity change, negative = inhibition: at the top concentration
Procedure, shortened: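 A 3D layer of primary human omental fibroblasts, mesothelial cells, fibronectin and collagen I, grown 48 hr, received SKOV3ip1-GFP cells in serum-free medium plus compounds at 0.36-46 umol/L. After 2 hr RT and 16 hr 37 C, fixed adherent GFP cells were counted; normalized to DMSO and tomatine.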

outcome, inactive:
COc1ccc(-c2nc3scc(CCNS(=O)(=O)c4cc(F)ccc4OC)n3n2)cc1OC, COc1ccccc1NC(=O)C1=C(C)Nc2nc(SCc3ccccc3F)nn2C1c1cccnc1 (stereo unspecified), Cc1ccc(C)c(CSC2=NC(C)(C)Nc3ccccc32)c1, CC(C)CN(CC(C)C)c1nc(-c2ccc(Cl)cc2)nc2ccccc12, O=C(Nc1ccccc1C(=O)OCc1cc(=O)n2c3c(sc2n1)CCCC3)c1ccccc1, CCCCNC(=O)C(CC)Sc1nnc(-c2ccc(F)cc2)c(-c2ccc(F)cc2)n1 (stereo unspecified), CCc1ccccc1NC(=O)Cn1nnc(-c2nc(-c3ccncc3)no2)c1N, O=C(NCc1ccccc1Cl)c1ccc2c(c1)nnn2C1CCCC1, CCCCC(=O)Nc1ccc2nc(SCC(=O)N3CCc4ccccc43)sc2c1, CC(=O)Nc1ccc(NC(=O)c2oc3c(c2C)-c2nn(Cc4ccccc4Cl)cc2CC3)cc1, CCc1ccc2nc(N(Cc3cccnc3)C(=O)c3ccc(C#N)cc3)sc2c1, CCOC(=O)N1CCc2c(sc3c2c(=O)n(Cc2ccccc2)c(=O)n3CC(=O)Nc2cccc(CC)c2)C1, Cc1cccc(NC(=O)Cn2nc(-c3ccccc3)c3cnc4ccccc4c32)c1, CCOc1ccc(-n2cc(-c3ccccc3)c3c(NCCc4ccccc4)ncnc32)cc1, O=S(=O)(c1ccc(C2CCCCC2)cc1)N1CCN(c2ccc(Cl)c(Cl)c2)CC1, O=C(Nc1ccc(F)cc1F)C1CCN(c2ncccn2)CC1, CCOc1ccccc1NC(=O)C1CCN(S(=O)(=O)c2c(C)noc2/C=C/c2ccco2)CC1, COc1ccc(CC(=O)Nc2c(C(=O)N3CCN(c4ccccc4)CC3)oc3ccccc23)cc1OC, Cn1c(=O)c2nc(SCC(=O)Nc3ccc(OC(F)(F)F)cc3)n(C)c2n(C)c1=O, CC1CCCN(CCCNC(=O)c2cc(Sc3ccc(F)cc3)nc3ccccc23)C1 (stereo unspecified), O=C(CCn1c(=O)c2ccccc2n(CC(=O)Nc2cccc(F)c2)c1=O)NCCc1ccccc1, COc1cc(OC)cc(-c2cc3nc(C)c(CCC(=O)NCCc4cccc(C)c4)c(C)n3n2)c1, COc1cc(NC(=O)Cn2nc(C(F)(F)F)c3c2CCC3)cc(OC)c1OC

Activity change, negative = inhibition, inactive:
COc1ccc(CCNC(=O)Cn2c(=O)cc(C(F)(F)F)c3c(C)nn(C)c32)cc1OC 1.32%, Clc1ccc(Nc2c(-c3cccs3)nc3ccc(Cl)cn23)cc1 -26%, Cc1ccc(Cl)cc1NC(=O)c1sc2nc(-c3ccccc3)cn2c1C 15.9%, CC(=O)c1cccc(NC(=O)CSc2nnc3ccc(-c4ccc(Cl)cc4)nn23)c1 2.84%, COc1ccc(CN(C)S(=O)(=O)c2nnc(NC(=O)C(C)C)s2)cc1OC -13.3%, CCOC(=O)c1sc2nc(C)n(CC(=O)Nc3cccc(Cl)c3)c(=O)c2c1C -1.99%, CCc1cccc(NC(=O)c2cc3c(=O)[nH]c4ccccc4c3n2C)c1 -12.8%, C=CCc1c(C)nc2nc(SCC(=O)Nc3cccc(Cl)c3)nn2c1C -28.3%, O=C(CCS(=O)(=O)c1ccccc1)N(Cc1cccnc1)c1nc2c(Cl)cccc2s1 2.88%, CCc1ccc(NC(=O)c2ccc3c(=O)n4nc(Nc5ccccc5C)sc4nc3c2)cc1 -18.6%, COc1ccc(Cl)cc1NC(=O)Cn1c(=O)n(Cc2nc(C)no2)c(=O)c2ccccc21 17.6%, O=C(NCCCN1CCN(c2ccc(F)cc2)CC1)C1COc2ccccc2C1 (stereo unspecified) 6.71%, Cc1c(Cl)cccc1NC(=O)c1ccc2c(c1)nnn2C1CCCC1 -14.8%, CCOC(=O)c1c(C)oc2nc(C)nc(N(CC(C)C)CC(C)C)c12 -6.8%, CN(C)C(=O)c1ccc(NC(=O)Cn2nc(-c3ccccc3)c3ccccc3c2=O)cc1 -4.71%, CCOC(=O)c1cccc(NS(=O)(=O)c2cc(-c3cnc(C)o3)ccc2OC)c1 5.74%, CCCOc1ccc(C2C(=O)N(C3CCCCC3)CC(=O)N2CCc2ccccc2)cc1OC (stereo unspecified) -9.32%, Clc1cccc(-n2ncc3c(NCCc4ccccc4)ncnc32)c1 3.89%, COc1ccccc1N1CCN(C(CNC(=O)C(=O)NCCN(C)C)c2cccnc2)CC1 (stereo unspecified) 11.6%, COc1cccc(CN2CCc3nc(Nc4ccc5c(c4)OCCO5)ncc3C2)c1OC 10.7%, CC(=O)Nc1ccc(OCc2cc(=O)n3ccccc3n2)cc1 2.15%, Cc1cccc(NC(=O)c2c(NC(=O)c3cccs3)sc3c2CCC(C)C3)c1 (stereo unspecified) 14.5%, CCOC(=O)c1c(NC(=O)COc2cc(C)ccc2C(C)C)sc2c1CCCC2 -0.94%, Cc1cccc(NC(=O)CSc2nc(=O)n(Cc3ccncc3)c3c2CCC3)c1C 1.41%, CCOc1ccc(NC(=O)c2cc(=O)c3cc(CC)ccc3o2)cc1 2.84%, Cc1ccc(-c2noc(-c3ccccc3NC(=O)C3CC(=O)N(c4cccc(C)c4)C3)n2)cc1 (stereo unspecified) -0.41%, Oc1ccc(/C=C/c2nc(-c3ccccc3O)n(-c3ccccc3)n2)c(O)c1 -6.24%, CCOc1ccc(NC(=O)CSc2nc(-c3cccs3)cc(C(F)(F)F)c2C#N)cc1 4.37%, CCc1ccc(C2=C(C)C(N3CCC(C(=O)Nc4cccc(OC)c4)CC3)=NS2(=O)=O)cc1 -20.9%, Cc1ccc(NC(=O)C2CCN(S(=O)(=O)c3ccc4c(c3)CCCC(=O)N4)CC2)c(Cl)c1 39.7%, COc1cc(NS(=O)(=O)c2ccc3c(c2)CC(=O)N3)cc(OC)c1OC 13.5%, COc1ccccc1NC(=O)CSC1=Nc2ccccc2C2=NC(CC(=O)NCCc3ccccc3)C(=O)N12 (stereo unspecified) -9.14%, CCOc1ccc(Nc2c(S(=O)(=O)c3ccc(C)cc3)cnc3cc(OC)c(OC)cc23)cc1 -22%, COc1ccc(CCNC(=O)c2ccc3c(c2)sc2nc(-c4ccc(C)cc4)cn23)cc1OC 9.43%, COc1cccc2c1Oc1ncccc1N(c1ccc(C(=O)NCc3ccccc3C)s1)C2 3.52%, Cc1ccc(NC(=O)c2c(C)oc3ncn(C)c(=O)c23)cc1F 12.6%, CCCCC(=O)Nc1ccc2nc(SCC(=O)N3CCOCC3)sc2c1 4.91%, COc1cc(NS(=O)(=O)c2ccc3[nH]c(=O)[nH]c3c2)cc(OC)c1 15.9%, CCOc1ccc(NC(=O)CN2CCN(CC(=O)Nc3ccc(N(CC)CC)cc3)CC2)cc1 11.4%, O=C(NC1(C(F)(F)F)C(=O)Nc2c1c(=O)[nH]c(=O)n2CCc1ccccc1)c1ccc(Cl)cc1 (stereo unspecified) -1.12%, Cc1cccc(-c2nc3c4ccccc4nc(N4CCN(c5ccc(F)cc5)CC4)n3n2)c1 19.7%, COc1ccccc1C(=O)n1nc(-c2cccnc2)nc1NCc1ccccc1 1.76%, Cc1ccc(OCC(=O)Nc2nnc(SCc3cc(=O)c4ccccc4[nH]3)s2)cc1C 1.96%, Cc1ccc(Cl)cc1NC(=O)c1ccc(NC(=O)N2CCSc3ncccc32)cc1 -0.759%, CC1=C(c2ccc(C(C)C)cc2)S(=O)(=O)N=C1N1CCN(c2ccc(F)cc2)CC1 -18.4%, O=C(CCCc1ccccc1)NC1CC(=O)N(c2ccc(Cl)cc2)C1 (stereo unspecified) 0.62%, COc1ccc(NC(=O)c2coc(=O)c3ccccc23)cc1OC 6.07%, CC1=Nc2cc(C(=O)NC3CCCCC3)ccc2Sc2ccc(Cl)cc21 -5.33%, Cc1ccc(N2CCN(C(=O)c3nn(C)c4c3CS(=O)(=O)c3ccccc3-4)CC2)c(C)c1 0.408%, Cc1ccc(Nc2ccc3cc(S(=O)(=O)N4CCC(C)CC4)ccc3n2)c(Cl)c1 -3.1%, CCc1cccc(NC(=O)CCn2c(=O)c3cccn3c3cccnc32)c1 -3.13%, CCOC(=O)c1ccc(NC(=O)Cn2nc3c4ccccc4n(Cc4cccc(F)c4)cc-3c2=O)cc1 -1.85%, O=C(CCn1c(=O)c2sccc2n(Cc2ccccc2F)c1=O)NCc1ccc2c(c1)OCO2 -7%, Cc1cc(NC(=O)CCc2nc3cccnc3n2-c2ccccc2)ccc1Br -9.07%, COC(=O)Cn1c(C2CC(=O)N(c3c(C)cccc3C)C2)nc2ccccc21 (stereo unspecified) -2.02%, O=C(NCCc1ccccc1)c1ccc(CS(=O)Cc2ccc(Cl)cc2)o1 (stereo unspecified) 8.94%, COc1ccc(C(=O)c2c(N)c(-c3nc(-c4ccc5c(c4)OCO5)cs3)c3ccccn23)cc1 -7.77%, O=C(CCNS(=O)(=O)c1ccc2c(c1)CCCC(=O)N2)Nc1cccc(Cl)c1 4.51%, Cc1ccc(C)c(N2CCN(c3ncnc4c3nc3n4CCCC3)CC2)c1 -17.9%, Cc1ccccc1NC(=O)Cn1cc(C(=O)c2ccco2)c2ccccc21 11.4%, O=C1OCC2=C1C(c1cccc(Cl)c1)CC(=O)N2c1ccc(C(F)(F)F)cc1 (stereo unspecified) -9.92%, CCN(CC)c1ncnc2c1cnn2-c1cc(Cl)ccc1C -7.61%, COc1cc(C(CC(=O)Nc2ccc(C)c(F)c2)N2Cc3ccccc3C2=O)cc(OC)c1OC (stereo unspecified) 2.27%, COc1ccc(-c2nc(CNC(=O)NC3CCCCC3)c(C)o2)cc1 -7.15%, Cc1cccc(Cn2cc(S(=O)(=O)c3cccc(Cl)c3)c(=O)c3cc(F)c(N4CCOCC4)cc32)c1 2.66%, CCOC(=O)c1c(C)[nH]c(C)c1S(=O)(=O)N(C)CC(=O)Nc1ccc(OC)cc1 4.1%, CCn1c(-c2nonc2N)nc2c(C#CC(C)(C)O)ncc(OC[C@H]3CCCNC3)c21 18.3%, COc1ccc(OC)c(CNC(=O)c2ccc(N3Cc4ccccc4Oc4ncccc43)s2)c1 4.64%, Cc1ccc(NC(=O)Cn2nc(-c3ccccc3)nc(Cc3ccc(Cl)cc3)c2=O)cc1 -3.08%, COc1cc(C2Nc3ccccc3-c3cc(C)nn32)ccc1O (stereo unspecified) -9.65%, COc1cccc(CNC(=O)c2cc3c(-c4ccccc4F)nn(C)c3s2)c1 0.589%, CCOC(=O)c1cccc(NC(=O)CCSCCc2ccccn2)c1 -2.12%, Cc1noc(-c2ccc(-c3noc(-c4ccc(F)cc4)n3)cc2)n1 -0.0465%
